Out of some 100,000 compounds screened, about 250 (0.25%) were called active. The shares of active, inactive and inconclusive entries below differ from those in the screen. The call rests on the fitted dose curve; in most records, active means well fitted inhibition curve with a large enough effect; inconclusive means small, poorly fitted or top-dose-only effect; inactive means flat fitted curve, though single readings scatter. No potency is given beside an inconclusive call; the fits are too rough.
Biological target: Alanine aminotransferase 2 (Homo sapiens) (UniProt Q8TD30)
UniProt Q8TD30, sequence (Q8TD30 whole entry, looked up): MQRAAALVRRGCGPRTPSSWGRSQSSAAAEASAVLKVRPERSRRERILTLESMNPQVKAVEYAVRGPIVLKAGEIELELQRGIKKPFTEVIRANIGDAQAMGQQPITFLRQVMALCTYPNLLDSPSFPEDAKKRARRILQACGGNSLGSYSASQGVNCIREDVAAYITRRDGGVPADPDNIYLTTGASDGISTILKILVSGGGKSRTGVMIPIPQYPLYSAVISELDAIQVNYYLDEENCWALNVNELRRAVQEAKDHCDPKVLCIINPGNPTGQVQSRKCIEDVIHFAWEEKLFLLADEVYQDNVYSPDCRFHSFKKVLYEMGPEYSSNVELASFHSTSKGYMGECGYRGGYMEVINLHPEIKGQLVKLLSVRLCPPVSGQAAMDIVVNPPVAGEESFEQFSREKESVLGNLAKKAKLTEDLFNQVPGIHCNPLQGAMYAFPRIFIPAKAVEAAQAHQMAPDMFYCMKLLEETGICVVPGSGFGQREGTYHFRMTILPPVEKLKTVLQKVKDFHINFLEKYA
Assay: Primary qHTS assay for inhibitors of Glutamate pyruvate transaminase 2 (GPT2); further: nearly all actives have a fitted effect of over 60% in size
Settings: Recombinant GPT2, coupled pyruvate oxidase/HRP Amplex Red fluorescence; series mostly up to 57.7 µM
Summary of the method: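 Fluorescence read-out: pyruvate from GPT2 turnover coupled to pyruvate oxidase, HRP and Amplex Red (0.2mM ThPP, 0.2U/mL PO and HRP, 50uM Amplex final). Substrates 250uM a-KG, 2mM L-alanine; enzyme 10ng/uL; 30 min RT.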
Potency means the concentration at half of the fitted maximal effect; tags describe the fitted curve by direction and shape.

SMILES | Potency
O=C(c1ccc(Cl)cc1)N1CCC2(CC1)C(=O)NCN2CCc1ccc(Cl)cc1 | inactive
CC(=O)Nc1ccc(NC(=O)Cn2ccn3nc4c(c3c2=O)CCCCC4)cc1 | inconclusive [inhibitor, partial curve, poor fit]
O=C(NC1CCCCC1)[C@H]1O[C@H](CCN2CCN(Cc3ccccc3)CC2)CC[C@@H]1O | inconclusive [inhibitor, single point]
CC(C)NC[C@H]1Cn2c(-c3ccc(Cl)cc3)cnc2CO1 | inconclusive [inhibitor, single point]
CCOc1ccc(C(=O)NC2CCCN(c3cc(-c4ccccc4)[nH]n3)C2)cc1 (stereo not drawn) | inconclusive [inhibitor, partial curve, poor fit]
O=C(Nc1ccc2ncnc(N3CCCCC3)c2c1)c1cncc(Br)c1 | inactive
O=C(NCc1ccccc1)Nc1cnc2c(c1)CCC2 | inconclusive [inhibitor, single point]
O=C(NCc1ccccc1Cl)C1CCN(C(=O)c2ncn3c2COC(c2ccccc2)C3)CC1 (stereo not drawn) | inconclusive [inhibitor, single point]
COc1cccc(CN2CCCn3nc(C)c(-c4ccccc4[S+](C)(=O)[O-])c32)c1 | inactive
COc1ccccc1CN1C(=O)COC[C@@H]1[C@H](O)c1ccc(NC(=O)c2ccccc2)cc1 | inconclusive [inhibitor, single point]
Cc1cnc(CC2CCN(C(=O)C3CC3)C2)n1C1CC1 (stereo not drawn) | inconclusive [inhibitor, single point]
C[C@H]1[C@@H]2[C@@H](O)C([C@H](C)C(=O)NCc3ccccn3)CC[C@@]2(C)CC[C@@H]1NC(=O)C1CC1 (stereo partly drawn) | inconclusive [inhibitor, partial curve, poor fit]
O=C(NCCc1ccc(Cl)cc1)c1ccc2nnc(-c3cccc(C(F)(F)F)c3)n2c1 | inactive
O=C1COCC2(CN(CCC(F)(F)F)C2)CN1Cc1cccc(OC(F)(F)F)c1 | inconclusive [inhibitor, single point]
O=C(Cn1cnnn1)N1CCc2ncnc(NC[C@H]3CCCO3)c2CC1 | inconclusive [inhibitor, full curve, poor fit]
CSc1ccc(CNC(=O)c2noc(-c3ccc(F)cc3)n2)cc1 | inconclusive [inhibitor, single point]
COCCNc1ncnc2c1CCN(C(=O)CCc1n[nH]c(C)n1)CC2 | inactive
COc1ccc(C(=O)NC2CCN(C(=O)c3ccc(-c4ncccc4C#N)cc3)CC2)cc1 | inconclusive [inhibitor, full curve, poor fit]
